The labels stand for the following.
B1: LINE1-full (parent)
chain: UACGUAGGUGGUUUUCCCCUGAUAGUGCUAAGGGGGCCUGGAAGUUUGGACUGGGCAGAGCUCAACACAGCGUGGCAAAGUGGCUGUGGCUAGACUGCCUCUCUGGAUUCCUCGUCACUCAGCAGGGCAUCUCUGAGAGAAAUGCC

Read counts are not given, so values of variants with three or more changes are uncertain.

Variants of B1 are the subject of the series. Briefly: self-cleavage, relative activity (ratio to wild type); higher = more cleavage; in vitro, sequencing; the parent is a self-cleaving ribozyme.
For the variant UACGUAGGUGGUUUUUCCCUGAUUGUGCUAAGGGGGCCUGGAAGUUUGGACUGGGCAGGGCUCAACACAGCGUGGCAAGGUGGCUGUGGCUAGACUGCCUCUCUGGAUUCCUCGUCACUCAGCAGGGCAUCACUGAGAGAAAUGCC [C16U A24U A59G A79G U132A], the self-cleavage worked out at 0.27.
Then UACGUAGGUGGUUUCCCCCUGAUAGUGCUAAGGGGGCCUGGAAGUUUGGACUGGGCAGAGCUCAACACAGCGUGGCAAAGUGGCUGUGGCUAGACUGCCUCUCUGGAUCCCUCGUCACUCAGCAGGGCAUCUCUGAGGGAAAUGCC [U15C U109C A138G], with 1.15; and UACGUAGGUGGUUUUUCCCUGAAAGUGCUAAGGGGGCCUGGAAGUUUGGACUGGGCAGAGCUCAACACAGCGUGGCAAAGUGGCCGUGGCUAGACUGCCUCUCUGGAUUCCCCGUCACUCAGCAGGGCAUCUCUGAGAGAAAUGCC [C16U U23A U85C U112C], with 0.12.
Turning to UACGUAGGUGGUUUUCACCUGAUAGUGCUAAGGGGGCCUGGAAGUUUGGACUGGGCAGAGCUCAACACAGCGUGGCAAAGUGGCUGUGGCUAUACUGCCUCCCUGGAUUCCUCGUCACUCAGCAGGGCAUCUCUGAGAGAAAUGCC [C17A G93U U102C], the self-cleavage amounted to 0.04.
With UACGUAGGUGGUUUUUCCCUGAUAGUGCUAAGGGGGCCUGGAAGUUUGGACUGGGCAGUGCUCAACACUGCGUGGCAAAGUGGCUGUGGCUAGACUGCCUCUCUGGAUUCCUCGUCACUCAGCAGGGCAUCUCUGAGAGAAAAGCC [C16U A59U A69U U143A], the self-cleavage was found to be 0.03.
Regarding UACGUAGGUGGUUUUUCCCUGAUAGUGCCAAGGGGGCCUGGAGGUUUGGACUGGGCAGAGCUUGACACAGCGUGGCAAGGUGGCUGUGGCUAGACUGCCUCUCUGGAUUCCUCGUCACUCAGCAGGGCAUCUCUGAGAGAAAUGCC [C16U U29C A43G C63U A64G A79G], the self-cleavage was 0.12.
Regarding UACGUAGGUGGUUUGCCCCUGAUAGUGCUGAGGGGGCCUGGAAGUUUGGACUGGGCAGAGCUCAACACAGCGUGGCAAAGUGGCUGUGGCUAGACUGCCUCUCUGGACUCCUCGUCACUCAGCAGGGCAUCUCUGAGAGAAAUGCC [U15G A30G U108C], the self-cleavage was determined as 0.57.
UACGUAGGUGGUUUUUCCCUGAUAGUGCUAAGGGGGCCUGGAAGUUUGGACUGGGCAGAGCUCAACACAGCGUGGCAAAGUGGCUGUGGCUAGACUGCCUCUCUGGAUUCCUCGUCACUCAGCUGGGCAUCCCUGAGAGAAAUGCC [C16U A124U U132C]: the self-cleavage was 1.59.
As for UACGUAGGUGGUUUGCCCCUGAUAGUGCUAAGGGGGCCUGGAAGUUUGGACUGGGCAGAGCUCAACACAGCGUGGCAAAGCGGCUGUGGCUAGACUGCCUCUCUGGAUUCCUCAUCACUCAGCAGGGCAUCUCUGAGAGAAGUGCC [U15G U81C G114A A142G], the figure is 1.31.
Then UACGUAGGUGGUUUUACCCUGAUAGCGCUAAGGGGGCCUGGAAGUUUGGACUGGGCAGAGCUCAACACAGCGUGGCAAAGUGGCUGUGGCUAGACUGCCUCUCUGGUUUCCUCGUCACUCAGCAGGGCAUCUCUGAGAGAAAUGCC [C16A U26C A107U], with 1.55.
Then UACGUAGGUGGUUUUUCCCUGAUAGUGCUAAGGGGGCCUGGAAGUUUGGACCGGGCUGAGCUCAACACAGCGUGGCAAAGUGGCUGUGGCUAGACUGCCUCUCUGGAUUCCUCGUCACUCAGCAGGGCAUCUCUGAGAGAAAUGCC [C16U U52C A57U], with 0.09; and UACGUAGGUGGUUUUCACCUGAUAGUGCUAAGGGGGCCUGGAAGUUUGGACUGGGCAGAGCUCAACACAGCGUGGCAAGGAGGCUGUGGCUAGACUGCCUCUCUGGAUUCCUCGUCACUCAGCAGGGCAUCUCUGAGAGAAAUGCC [C17A A79G U81A], with 1.24.
As to UACGUAGGUGGUUUUUCCCUGAUAGUGCUAAGGGGGCCUGGGAGUUUGGACUGGGCAGAGCUCAACACGGCGUGGCAAAGUGGCUGUGGCUAGACUGCCUCUCUGGAUUCCACGUCACUCAGCAGGGCAUCUCUGAGAGAAAUGCC [C16U A42G A69G U112A], the self-cleavage was determined as 0.28.
Turning to UACGUAGGUGGUUUUUCCCUGAUAGUGCUAAGGGGGCCUGGAAGUUUGGACUGGGCAGAGCUCAACACUGCGUGGCAAAGUGGCUGUGGCUAGACUGCCUCUCCGGAUUCCUCGUCACUCAGCAGGGCAUCUCUGAGAGAGAUGCC [C16U A69U U104C A141G], the self-cleavage is 0.06.
In the case of UACGUAGGUGGUUUUCACCUGAUAGUGCUAAGGGGGCCUGGAAGUUUGGACUGGGCGGAGCUCAACACAGCGUGGCAAAGUGGCUGUGGCUAGACUGCCUCUCUAGAUUCCUCGUCACUCAGCCGGGCAUCUCUGAGAGAAACGCC [C17A A57G G105A A124C U143C], the self-cleavage amounted to 1.57.
As for UACGUAGGUGGUUUGCCCCUGAUAGUGCUAAGGGGGCCUGGAAGUUUGGACUGGGCAGAGCUCAACACAGCGUGGCAGAGUGGCAGUGGCUAGACUGCCUCUCUGGAUUCCUCGUCACUCAGCAGGGCAUCUCUGAGAGAAAUGCC [U15G A78G U85A], the figure is 0.27.
Then UACGUAGGUGGUUUUUCCCUGAUAGUGCUAAGGGGGCCUGGAAGUUUGGACUGGGCUGAGCUCAACACAGCGUGGCAAAGUGACUGUGGCUAGACUGCCUCUCUGGAUUCCUCGUCACUCAGCAGGGCACCUCUGAGAGAAAUGCC [C16U A57U G83A U130C], with 0.02; and UACGUAGGUGGUUUCCCCCUGAUAGUGCUAAGGGGGCCUGGAAGUUUGGACUGGGCAGAGCUCAACACAGCGUGGCAAAGUGGCUGUGGCUAGACUGCCUCUCUGGAUUCCUCGUCACCCAGCAGGGCAUCUCUGAGGGAAAUGCC [U15C U119C A138G], with 1.53; and UACGUAGGUGGUUUUUCCCUGAUAGUGCUAAGGGCGCCUGGAAGUUUGGACAGGGCAGAGCUCAACACAGCGUGGCAAAGUGGCUGUGGCUAGACUGCCACUCUGGAUUCCUCGUCACUCAGCAGGGCAUUUCUGAGGGAAAUGCC [C16U G35C U52A U100A C131U A138G], with 1.02.

Values taken from the RNAGym collection of RNA variant scans (doi:10.7554/elife.90254).
